Molecular target: T1, human Kv1.3 channel (human)
T1 construct: whole, on cells; also called hKv1.3; HEK293/Kv1.3
Test: enzyme-immunoassay on fixed HEK 293 cells stably transfected with human Kv1.3

B1: Fc-L10-ShK[[…]] (Fc fusion)
chain: not shown
Does B1 bind?
Result: binds
